Measurements as given in PubChem BioAssay AID686970 (National Center for Advancing Translational Sciences (NCATS), 2013).
“And” between values parts separate entries of the source, which are not always exact repeats. Identical values can stand only once. Out of some 360,000 compounds screened, about 6,000 (1.7%) were called active. This list was built around the results that the source calls inconclusive (neither active nor inactive); the mix of calls is not that of the screen. Calls come from the whole dose curve; as a rule, active = well fitted cell-killing curve with a large enough effect; inconclusive = small, poorly fitted or top-dose-only effect, or effect the other way; inactive = flat fitted curve, though single readings scatter. No potency is given beside an inconclusive call; the fits are too rough.

assay: qHTS for induction of synthetic lethality in tumor cells producing 2HG: qHTS for the HT-1080-NT fibrosarcoma cell line; settings: HT-1080-NT fibrosarcoma viability, CellTiter-Glo ATP luminescence, 48 h; activity, negative = less viability: at 46.1 µM (top of the series) unless noted;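 note: NT is the 2HG producing partner of a matched IDH1 knockdown line; nearly all actives have a fitted effect of over 55% in size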;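 for activity, negative = less viability: 0% = DMSO-treated cells and -100% = media-only wells without cells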
Summary of the method: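 Luminescent CellTiter-Glo readout after 48 hours of compound exposure at 37 degrees C defined viability of HT-1080-NT cells. Activity was normalized to DMSO wells and cell-free media wells; concentration-response curves were fitted and assigned curve classes.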
Potency is the fitted concentration of half-maximal effect; tags give direction and shape of the fitted curve.

Row | Structure (SMILES) | Potency | activity, negative = less viability
1 | CCCCCCCCN1C(=O)[C@H](CC(=O)N2CCN(C(=O)OCC)CC2)C[C@@]2(C(=O)OCC)CCCC=C12 | inconclusive [cytotoxic, single point] | 
2 | ClC(Cl)(Cl)c1nc2ccccc2n2nncc12 | active: 6.51 µM | 
3 | Cc1ccsc1/C=N/NC(=S)NCCc1ccccc1 | inconclusive [rising, single point] | 
4 | CS(=O)(=O)N1CCN(c2ccc(NC(=O)c3ccccc3)cc2)CC1 |  | inactive: -0.695%
5 | Cc1c(O)ccc2c(CN3CCN(C/C=C/c4ccccc4)CC3)cc(=O)oc12 | inconclusive [cytotoxic, single point] | 
6 | Cc1noc(C)c1S(=O)(=O)N1CCC(C(=O)Nc2ccc(OC(F)(F)F)cc2)CC1 | inconclusive [cytotoxic, single point] | 
7 | CN(C(=O)/C(N=Nc1cccc(C(F)(F)F)c1)=C(\O)C(F)(F)F)c1ccccc1 | active: 11.2 µM | 
8 | Cc1ccc(NCc2nc3ccccc3n2CCOc2ccccc2)cc1 |  | inactive: 7.79%
9 | Cc1ccc(Nc2cc(C(=O)NCCCN3CCOCC3)c3ccccc3n2)cc1C | active: 23.1 µM | 
10 | O=C(NN=C1CCCC1)c1[nH]c2ccc(Cl)cc2c1-c1ccccc1 | inconclusive [cytotoxic, single point] | 
11 | COc1ccccc1N1CCN(C2CCN(S(=O)(=O)c3ccc(C)cc3)CC2)CC1 |  | inactive: -19%
12 | COc1ccccc1CCn1cnc(-c2ccc(OC)c(OC)c2)c1C(C)C | active: 23.1 µM | 
13 | O=C(O)CNc1nc(-c2ccccc2)nc2c1oc1ccccc12 |  | inactive: -7.8%
14 | CC1(C)CN(C(Cc2ccccc2)C(N)=O)C1=O (stereo not drawn) |  | inactive: 8.96%
15 | COc1ccc(CC(N)c2csc(NC(=O)c3cc(C(C)(C)C)nn3Cc3ccccc3)n2)cc1 (stereo not drawn) | active: 20.6 µM | 
16 | Cc1ccc(/C=C/C(=O)c2cc(Br)ccc2OC(=O)c2ccco2)cc1 | inconclusive [cytotoxic, single point] | 
17 | O=C(c1ccc(OCCN2CCCCC2)cc1)c1c(-c2ccc(O)cc2)sc2cc(O)ccc12 | active: 18.4 µM and active: 20.6 µM | 
18 | COc1ccc(OC)c(NC(=O)c2cnc(Nc3ccccc3OC)c3ccccc23)c1 |  | inconclusive: -33.2% [cytotoxic]
19 | CSc1nsc2nc(=O)c(/C=C3\C(C)=Nc4ccc(C)cc43)c(N)n12 | inconclusive [cytotoxic, partial curve] | 
20 | COc1cc(NC(=O)CN2C(=O)C(C)N(c3ccc(C)cc3)C2=O)cc(OC)c1 (stereo not drawn) |  | inactive: 3.37%
21 | COC(=O)[C@@]12C[C@@H](CC(=O)NCCC(C)C)C(=O)N(Cc3ccc4c(c3)OCO4)C1=CCC(C)(C)C2 | inconclusive [cytotoxic, single point] | 
22 | COc1ccc(NC(=O)CCCN2C(=O)C3CC=CCC3C2=O)cc1 (stereo not drawn) | inconclusive [cytotoxic, single point] | 
23 | COc1ccc(-c2cnc3c(NC=O)cc(-c4ccccc4OC)cn23)cc1OC | active: 0.0461 µM | 
24 | CC(=O)NNC(=O)c1cc2sccc2s1 |  | inactive: 15.6%
25 | CCCCN(C)c1c(C)nc2ccc(C(=O)N(C)Cc3ccco3)cn12 |  | inactive: -0.926%

Row | Structure (SMILES) | Potency | activity, negative = less viability
26 | CCOc1cc(CNn2cnnc2SCC(=O)NC(C)(C)C)ccc1OCC(=O)NC(C)(C)C |  | inactive: 3.55%
27 | Cc1ccc(OCCNC(=O)CCNS(=O)(=O)c2ccc3ccccc3c2)cc1 |  | inconclusive: -18.4% [cytotoxic]
28 | Cc1ccccc1NC(=O)Nc1cnccn1 | inconclusive [rising, single point] | 
29 | CCO[C@@H]1OC(C(=O)N2CCN(Cc3ccc4c(c3)OCO4)CC2)=C[C@H](c2ccc(C(F)(F)F)cc2)[C@H]1CCCO | inconclusive [cytotoxic, partial curve] | 
30 | CN(C)S(=O)(=O)c1cccc(COC(=O)Cc2c(F)cccc2Cl)c1 |  | inactive: 0.662%
31 | Cc1cccc(NC(=S)NC(=O)C(c2ccccc2)c2ccccc2)n1 | inconclusive [cytotoxic, single point] | 
32 | COc1cccc(-c2cccc3c2NC(=O)C3(C)Cc2cccc(F)c2)c1 (stereo not drawn) | inconclusive [cytotoxic, single point] | 
33 | COc1ccccc1NS(=O)(=O)c1ccc(NC(C)=O)cc1 |  | inactive: 2.55%
34 | O=c1cc(C(O)C[N+](=O)[O-])occ1OCc1ccccc1 (stereo not drawn) |  | inactive: -0.086%
35 | COc1ccc(C(=O)Nc2ccc(NC(C)=O)cc2)cc1S(=O)(=O)N1CCCCC1C (stereo not drawn) | inconclusive [cytotoxic, single point] | 
36 | C=CCn1c(SCC(=O)NC2CCCc3ccccc32)nnc1-c1ccncc1 (stereo not drawn) |  | inactive: 13.7%
37 | CCC(C)N=C1CC(C)(C)CC(=O)/C1=C(/O)Cc1ccccc1 (stereo not drawn) |  | inactive: 17.1%
38 | CCc1cc2ccc(C)cc2nc1SCC(=O)c1ccc(NC(C)=O)cc1 | inconclusive [cytotoxic, single point] | 
39 | CC(=O)N1CCSc2ccc(S(=O)(=O)N3CCC(C)CC3)cc21 | inconclusive [cytotoxic, partial curve] | 
40 | COc1ccc(/C=N/NC(=O)c2ccc(COc3ccccc3Cl)o2)c(OC)c1C | inconclusive [cytotoxic, single point] | 
41 | NC(=O)c1ccsc1NC(=O)COC(=O)/C=C/c1ccccc1[N+](=O)[O-] |  | inactive: -4.57%
42 | O=C(Nc1ccccc1Cl)N1CCN(c2ccc3nnc(-c4ccc(F)cc4)n3n2)CC1 |  | inactive: -1.84%
43 | Cc1ccc(NC(=O)c2cc3ccccc3oc2=N)cc1 |  | inactive: 6.26%
44 | CCN(CC)CCOC(=O)c1ccc(NC(=O)c2cn(-c3ccccc3)nc2-c2cccs2)cc1 | active: 20.6 µM | 
45 | CCOC(=O)CC1(C)Oc2ccccc2N1S(=O)(=O)c1ccc(C)cc1 (stereo not drawn) |  | inactive: -10%
46 | COc1ccc([C@H]2C[C@@H](O)C[C@@H](CCn3cc(-c4ccccc4)nn3)O2)cc1 |  | inactive: 11.5%
47 | COc1ccc(CN(C)CC(O)COC(c2ccccc2)c2ccccc2)c(OC)c1OC (stereo not drawn) | active: 23.1 µM | 
48 | COc1ccc(S(=O)(=O)NCC2CCCO2)cc1NC(=O)c1ccccc1F (stereo not drawn) | inconclusive [cytotoxic, single point] | 
49 | O=C(Nc1ccc(Cl)c(-c2nc3ccccc3[nH]2)c1)c1cccnc1 | inconclusive [cytotoxic, single point] | 
50 | CCOC(=O)[C@@H]1[C@H]2COc3cc(OC)ccc3[C@H]2N2C(=O)N(c3ccc(C)cc3)C(=O)[C@@]12C | inconclusive [rising, single point] | 

Row | Structure (SMILES) | Potency | activity, negative = less viability
51 | Cc1ccc2c(c1)c(CC(=O)Nc1ccc(F)cc1)c(C(=O)O)n2C | inconclusive [cytotoxic, partial curve, poor fit] | 
52 | O=C(Nc1nccs1)c1ccc(CSc2nnnn2-c2ccccc2)cc1 | inconclusive [cytotoxic, single point] | 
53 | O=C(O)/C=C/c1cn(Cc2ccccc2Cl)nc1-c1ccccc1 |  | inactive: -6.38%
54 | COc1cccc(Oc2cnc(N)nc2-c2ccc(OC)cc2O)c1 | inconclusive [cytotoxic, partial curve, poor fit] | 
55 | COc1ccc(C(=O)N2CCC2(C)C(=O)O)cc1C(F)(F)F (stereo not drawn) | inconclusive [rising, single point] | 
56 | COc1ccc2[nH]cc(/C=C/C(=O)c3ccccc3)c2c1 | active: 18.4 µM | 
57 | O=C(CN1CCCC1)Nc1nc(-c2ccc3c(c2)CCN3C(=O)c2ccccc2F)cs1 | inconclusive [cytotoxic, single point] | 
58 | O=C(c1ccco1)N(CCCN1CCOCC1)c1nc(-c2ccc(Cl)cc2)cs1 | inconclusive [cytotoxic, single point] | 
59 | CCN1CCN(C(c2cccs2)C(C)NC(=O)c2ccccc2F)CC1 (stereo not drawn) | inconclusive [rising, partial curve, poor fit] | 
60 | CCc1ccccc1N1C(=O)CC(Sc2nccc(C)n2)C1=O (stereo not drawn) |  | inactive: -0.061%
61 | Cn1c(=O)c(=O)n(C)c2cc(N3CCOCC3)c(NS(=O)(=O)c3ccc(Br)cc3)cc21 |  | inactive: -0.951%
62 | O=C([C@H]1O[C@@H](n2ccc(=O)[nH]c2=O)[C@H](O)[C@@H]1O)N(CCC1=CCCCC1)CC1CC1 |  | inconclusive: -30.7% [cytotoxic]
63 | CCn1nc(C)cc1C(=O)N1CCCC(C(=O)c2ccc(OC)cc2C)C1 (stereo not drawn) |  | inactive: 0.973%
64 | CC(=O)c1cccc(NS(=O)(=O)c2cc(-c3cnc(C4CC4)o3)ccc2C)c1 | active: 20.6 µM | 
65 | Cc1cc(/C=C2\SC(=S)N(C)C2=O)c(C)n1-c1ccc(O)cc1 | inconclusive [cytotoxic, single point] | 
66 | C=CC1C(OC2OC(CO)C(O)C(O)C2O)OC=C(C(=O)OC)C1CC1CC(=O)CC(CC(=O)CCc2ccc(O)cc2)O1 (stereo not drawn) | inconclusive [rising, single point] | 
67 | CC(=NNC(=S)Nc1ccc(C)cc1)c1ccccn1 | inconclusive [cytotoxic, partial curve] | 
68 | COc1ccc(NC(=O)CSCC(=O)N2CCN(C(=O)c3ccco3)CC2)cc1 |  | inactive: -2.18% [at 9.24 µM]
69 | CC(C)=CCn1c2ccc(NC(=O)NCc3ccc(F)cc3)cc2c(=O)n1C | inconclusive [cytotoxic, full curve] | 
70 | CC(Oc1ccc(F)cc1)C(=O)Nc1cc(S(=O)(=O)N2CCCCC2)ccc1N1CCN(C)CC1 (stereo not drawn) |  | inactive: -10.1%
71 | O=C(N[C@@H](Cc1ccccc1)C(=O)OCc1ccccc1)c1ccco1 |  | inactive: 9.13%
72 | O=C(Cn1nnc2c(cnn2-c2ccccc2)c1=O)NCc1cccs1 | inconclusive [cytotoxic, single point] | 
73 | NCCCC[C@H]1CNC(=O)C(=O)N1CCc1cc(C(F)(F)F)cc(C(F)(F)F)c1 |  | inactive: 4.34%
